Paper PMC6919601, “Identification of Plasmodium dipeptidyl aminopeptidase allosteric inhibitors by high throughput screening” (PLoS ONE, 2019)
Out of some 110,000 compounds screened, about 230 (0.21%) showed an effect of 50% or more. This is one part of the list.

These molecules were tested against DPAP1 (Plasmodium falciparum, UniProt Q8IIJ9) (assay: primary screen, percent inhibition; read by cleavage of a fluorogenic dipeptide substrate; higher = more effect of the substance).
Design: species or system P. falciparum D10 trophozoite lysates; single well
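Also: 30 min substrate incubation versus DMSO and 10 µM JCP410 controls.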

Sequence of DPAP1 (Q8IIJ9 whole entry, looked up): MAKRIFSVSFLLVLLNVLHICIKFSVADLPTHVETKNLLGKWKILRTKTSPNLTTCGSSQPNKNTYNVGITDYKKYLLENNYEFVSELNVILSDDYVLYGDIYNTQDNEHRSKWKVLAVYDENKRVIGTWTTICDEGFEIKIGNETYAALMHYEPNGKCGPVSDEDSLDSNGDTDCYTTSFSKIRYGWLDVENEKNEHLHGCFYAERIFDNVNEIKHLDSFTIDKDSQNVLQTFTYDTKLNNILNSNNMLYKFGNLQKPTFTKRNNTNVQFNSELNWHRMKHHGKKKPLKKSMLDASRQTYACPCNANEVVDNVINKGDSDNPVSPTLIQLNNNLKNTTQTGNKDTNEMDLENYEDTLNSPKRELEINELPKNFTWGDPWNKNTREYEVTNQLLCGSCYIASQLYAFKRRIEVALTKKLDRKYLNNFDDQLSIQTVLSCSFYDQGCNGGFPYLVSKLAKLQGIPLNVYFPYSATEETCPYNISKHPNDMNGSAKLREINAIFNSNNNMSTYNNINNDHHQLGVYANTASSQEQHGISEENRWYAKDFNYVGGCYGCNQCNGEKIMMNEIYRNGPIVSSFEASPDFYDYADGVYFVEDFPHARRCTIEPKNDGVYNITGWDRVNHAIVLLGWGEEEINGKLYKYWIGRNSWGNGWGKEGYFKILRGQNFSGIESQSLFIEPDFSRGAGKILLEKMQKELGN

Row | SMILES | % Inhibition @ 10 uM [%]
1 | Cn1nc(C(=O)NCc2ccccc2Cl)cc1C(=O)O | -1.65
2 | CCc1ccc(C2CC(c3ccccc3)=NN2C(=O)CCCC(=O)O)cc1 (stereo not shown) | -1.33
3 | CN(Cc1ccccc1)S(=O)(=O)c1nnc(NC(=O)CCc2ccccc2)s1 | -6.65
4 | CNS(=O)(=O)c1cn(CC(=O)Nc2ccc(C)cn2)cc1S(=O)(=O)NC | -6.88
5 | Cc1ccc(-c2nc(CSCC(=O)Nc3cc(C)on3)c(C)o2)cc1 | -2.14
6 | CC(C(=O)NCCC(=O)O)N1C(=O)c2ccccc2C1=O (stereo not shown) | -1.81
7 | Cc1cc2nc(CSc3n[nH]c(N)n3)cc(=O)n2o1 | -2.46
8 | COc1ccc(/C=C/C(=O)O)cc1S(=O)(=O)N1CCOCC1 | 1.44
9 | Cc1oc2ncnc(N3CCN(Cc4ccccc4)CC3)c2c1C(=O)O | 1.15
10 | CCNc1nc(F)cc(F)n1 | 2.79
11 | CCCCCC(=O)Nc1ccc(C(C)=O)cc1 | -4.02
12 | CNC(=O)NC1CCCc2ccccc21 (stereo not shown) | -1.74
13 | CC1CCN(C(=O)c2cccc3c2SCCC3=O)CC1 | -8.65
14 | O=C(Cn1c2ccccc2c2cnnc(O)c21)N1CCC2(CC1)OCCO2 | -4.01
15 | CCOc1ccccc1C(=O)Nc1cc(OC)c(Cl)cc1OC | -1.07
16 | COc1ccc2c(c1)c1c(c(=O)n(Cc3ccccc3)c(=O)n1CC(=O)N1CCCC1)n2C | 10.2
17 | Cc1cccn2c(N)c(-c3ccc(F)cc3)nc12 | 6.31
18 | COC(=O)c1cc(-c2ccc(C(C)C)cc2)[nH]n1 | -5.15
19 | Cn1cnc2c(cnn2-c2ccc(Cl)cc2)c1=O | -3.53
20 | Cc1ccc(C(=O)C2=C(O)C(=O)N(CCOCCO)C2c2ccccc2F)cc1 (stereo not shown) | 3.21
21 | Cc1ccc2cc3cc(C(=O)NCC4CCCO4)sc3nc2c1 (stereo not shown) | -2.44
22 | COc1ccc(CN2CCN(C(=O)Cn3cc4c(n3)CCCC4)CC2)c(OC)c1OC | 3.4
23 | CCN(CC)S(=O)(=O)c1cc(C(=O)NC2CCCCC2)ccc1C | -0.292
24 | COC(=O)c1cc(S(=O)(=O)N2CCN(c3ccc(N4CCOCC4)nn3)CC2)c[nH]1 | 3.12
25 | CCC(C(=O)O)n1nc(C)c2sc3ccccc3c2c1=O (stereo not shown) | -1.75

Row | SMILES | % Inhibition @ 10 uM [%]
26 | O=C(CN1C(=O)CSc2ncccc21)NC1CCCc2ccccc21 (stereo not shown) | -7.93
27 | CCOc1ccc(Br)cc1C1C(C#N)=C(N)Oc2cc(C)oc(=O)c21 (stereo not shown) | -3.48
28 | COc1ccc(CC(=O)c2ccc(C(=O)Cc3ccc(OC)c(OC)c3)cc2)cc1OC | -5.85
29 | N#CC1=C(N)OC2=C(C(=O)c3ccccc3C2=O)C1c1cccc(Cl)c1 (stereo not shown) | 5.37
30 | O=C1NC(=O)C2(C(=O)N1)C(c1ccc(F)cc1)NC(=S)NC2c1ccc(F)cc1 (stereo not shown) | 2.83
31 | CCCc1cc(=O)oc2c(C)c3c(cc12)CN(Cc1ccc2c(c1)OCO2)CO3 | -2.57
32 | Cc1cccc(Cn2nc(N)cc2C)c1 | 0.772
33 | COc1ccccc1N(CN1C(=O)c2ccc(Br)cc2C1=O)C(C)=O | 0.583
34 | O=C(O)C1CCN(C2CC(=O)N(c3cccc(Cl)c3)C2=O)CC1 (stereo not shown) | 0.83
35 | CCCCN1C(=O)c2ccc(C(=O)Nc3ccccc3C(=O)O)cc2C1=O | -12.8
36 | COc1ccc(-c2nc(CS(=O)CC(=O)NCc3ccc(C)cc3)c(C)o2)cc1 (stereo not shown) | 0.689
37 | CCOP(=O)(CN(C)C(C)=O)OCC | -2.18
38 | CC(NC(=O)Cn1cccc1C(=O)c1ccccc1)C12CC3CC(CC(C3)C1)C2 (stereo not shown) | -5.89
39 | Cc1noc(NS(=O)(=O)c2ccc(NC(=O)c3cccc(Cl)c3)cc2)c1C | 9.94
40 | COc1ccc(-n2nnc(-c3nc(-c4ccc5c(c4)OCO5)no3)c2N)cc1Cl | -3.58
41 | CCN1C(=O)N/C(=C/c2c[nH]c3ccc(Br)cc23)C1=O | -1.61
42 | Cc1ccc(NC(=O)C(C)Oc2ccccc2C)cc1 (stereo not shown) | -0.95
43 | CC(C)(C)OC(=O)NC(Cc1c[nH]c2ccccc12)C(=O)NC1CCCCC1 (stereo not shown) | -3.96
44 | CC(CCc1ccccc1)NC(=O)c1csc2c1CCCC2 (stereo not shown) | 1.93
45 | COCCN1C(=O)c2[nH]nc(-c3cc(C)ccc3O)c2C1c1cccc(O)c1 (stereo not shown) | 3.81
46 | O=c1c(=O)n(Cc2ccc(Cl)cc2)ccn1CCc1ccccc1 | -2.41
47 | Cc1oc(-c2ccc(C(=O)NCc3ccccn3)cc2)nc1CS(=O)c1ccccc1 (stereo not shown) | -0.767
48 | Cc1ccc(CN2C(=O)c3ccccc3NC2c2ccc3c(c2)OCO3)cc1 (stereo not shown) | 0.727
49 | NC(=O)c1ccc(NC(=O)COc2ccc3ccccc3c2Br)cc1 | -2.07
